Here are results for 30 molecules from PubChem BioAssay AID488969 (Vanderbilt High Throughput Screening Facility, 2010).

The structures appear in SMILES notation. Over roughly 110,000 compounds, “z-score” has its median near -0.1; the highest 2% begin near 2. The list shows a part of the results.

The target of the test is Metabotropic glutamate receptor 8 (Rattus norvegicus) (UniProt P70579). The experiment in a line: rat mGluR8 modulators via GIRK flux, primary screen, cell-based, thallium flux, HTS (AID 488969). The following applies: HEK293 rat mGluR8, GIRK (G protein-gated inwardly rectifying potassium channel) thallium flux, FluoZin2; at 10 µM; stronger effect = higher value; submaximal glutamate (EC20) added with thallium.
Sequence of UniProt P70579 (P70579 whole entry, looked up): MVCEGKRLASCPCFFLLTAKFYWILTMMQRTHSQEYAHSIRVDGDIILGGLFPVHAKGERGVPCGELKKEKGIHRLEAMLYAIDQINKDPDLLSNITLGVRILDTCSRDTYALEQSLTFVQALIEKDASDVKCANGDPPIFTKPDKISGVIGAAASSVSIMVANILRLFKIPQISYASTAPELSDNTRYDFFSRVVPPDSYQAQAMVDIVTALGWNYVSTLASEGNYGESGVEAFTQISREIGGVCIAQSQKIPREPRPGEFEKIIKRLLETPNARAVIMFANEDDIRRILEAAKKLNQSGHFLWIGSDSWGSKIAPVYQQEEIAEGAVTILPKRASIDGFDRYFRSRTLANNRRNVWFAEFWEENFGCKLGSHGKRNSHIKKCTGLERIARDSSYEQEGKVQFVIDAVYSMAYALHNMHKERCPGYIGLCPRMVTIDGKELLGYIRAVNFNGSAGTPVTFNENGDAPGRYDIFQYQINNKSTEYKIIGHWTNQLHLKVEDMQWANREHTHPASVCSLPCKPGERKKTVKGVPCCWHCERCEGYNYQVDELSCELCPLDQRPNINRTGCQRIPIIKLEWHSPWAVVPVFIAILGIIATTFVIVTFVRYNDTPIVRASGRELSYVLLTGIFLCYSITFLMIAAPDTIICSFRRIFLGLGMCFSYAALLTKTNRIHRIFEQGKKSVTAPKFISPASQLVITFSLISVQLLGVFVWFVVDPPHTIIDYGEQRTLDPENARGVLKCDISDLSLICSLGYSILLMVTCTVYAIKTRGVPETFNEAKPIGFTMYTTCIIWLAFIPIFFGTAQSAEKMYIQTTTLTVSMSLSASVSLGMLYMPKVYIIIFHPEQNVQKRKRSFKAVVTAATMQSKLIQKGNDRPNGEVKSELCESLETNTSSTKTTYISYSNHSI
The molecule `CCOC(=O)Cc1csc(NC(=O)CSc2nnnn2-c2ccc(F)cc2)n1` had a z-score of 0.951. Regarding `N#C/C(=C(/O)Cc1cccc2ccccc12)c1nc2ccccc2s1`, the z-score is -0.341. `Cc1ccc(NC(=O)CCC(C(=O)O)N2C(=O)c3ccccc3C2=O)cc1` (stereo not given) yielded a z-score of -0.00744.

For `O=C(c1cccc(F)c1)N1CCN(C(=O)c2nn3cccnc3c2Cl)CC1`, the z-score was -0.043.

On to `Cn1nnnc1SCC(=O)Nc1ccc(Cl)cc1Cl`, for which the z-score was 0.069. The molecule `O=C1/C(=C/c2ccco2)N=C(N2CCCCC2)N1c1ccccc1` came in with a z-score of -0.387.

`CCn1c(SCC(=O)NC2CCCC2)nnc1-c1c[nH]c2ccccc12` gave a z-score of -0.117. The value for `COc1ccc(CCNS(=O)(=O)c2ccc3c(c2)CCN3C(=O)CCC(=O)O)cc1OC` was 0.0693; that for `CCCc1cc2c(c(NC(C)=O)n1)c(=O)oc1ccccc12` was 0.703. `COc1ccc(C2C(C#N)=C(N)OC3=C2C(=O)CCC3)cc1Cn1nc(C)c([N+](=O)[O-])c1C` (stereo not given) showed a z-score of -0.18.

`C=C(C)Cn1c(Sc2nnc(C)s2)nc2c1c(=O)[nH]c(=O)n2C` had a z-score of 1.46. In turn, `Cc1c(C(=O)Nc2c(C)n(C)n(-c3ccccc3)c2=O)oc2ccccc12` showed a z-score of 0.492. On to `CCCCCCC1CC(CSc2ncn[nH]2)OC1=O` (stereo not given), for which the z-score is -0.0128. With `O=C(Oc1ccc2c(=O)c(Oc3ccc4ccccc4c3)coc2c1)c1ccco1`, the z-score was -0.534. The molecule `Cc1sc2ncn(CC(=O)NCc3ccccn3)c(=O)c2c1S(=O)(=O)N1CCOCC1` registered a z-score of 0.542. `COc1cc2c(cc1NC(=O)c1ccc(C)c([N+](=O)[O-])c1)oc1ccccc12` came in with a z-score of -0.706.

The molecule `Cc1cc(-c2ccccc2)c(C#N)c(SCC(N)=O)n1` yielded a z-score of 0.0144. `COc1ccc(N2CCN(C(=O)CCc3ccc(S(=O)(=O)NCC(C)C)cc3)CC2)cc1` displayed a z-score of -0.82. In the case of `COC(=O)c1ccc(NC(=S)Nc2ccccc2)cc1`, the z-score was 0.0759. Take `COc1ccccc1NS(=O)(=O)/C=C/c1ccccc1`: the z-score is -0.311. `CSc1nc(C)c2c(n1)N(c1ccc(F)cc1)CC2` showed a z-score of -0.0784. `O=C1NC(c2ccc(-c3ccccc3[N+](=O)[O-])o2)C(C(=O)c2ccccc2)C(O)(C(F)(F)F)N1` (stereo not given) yielded a z-score of 0.136. In turn, `Cc1cccc(NC(=O)C2CCCN(S(=O)(=O)c3cccc4nsnc34)C2)c1` (stereo not given) returned a z-score of 0.431. Consider `O=C(NCc1ccco1)c1nc2ncccn2n1`, for which the z-score was -0.0347. For the molecule `COc1cc(SC)ccc1C(=O)NCC1CCCO1` (stereo not given), the z-score stood at 0.267. `Cc1cccc(N=C2NC(=O)S/C2=C\c2ccco2)c1` showed a z-score of -0.382. For `CC1CCc2c(sc(N)c2C(=O)OC(C)C)C1` (stereo not given), the z-score amounted to 0.201. With `O=C(NCc1ccncc1)C1CCN(S(=O)(=O)Cc2ccccc2)CC1`, the z-score is -0.264. Consider `COc1ccc(CNC(=O)Cn2nc(Cc3cccnc3)c3ccccc3c2=O)cc1`, for which the z-score is -0.168.

`COc1cc(-c2nc(-c3ccc4c(c3)-c3ccccc3S4(=O)=O)c(-c3ccccc3)[nH]2)cc(OC)c1OC` had a z-score of -0.0889.
